Our source for the NF-kB reporter and ISRE reporter values is the supplement of paper PMC9174493.

This is one part of the list. Single values of this set are uncertain. Values with irradiation are relative to irradiated vehicle.

The test system of test [1] is A549-Dual. Put plainly: NF-kB reporter (SEAP) activity, viability-corrected, relative to vehicle (fold change vs vehicle); higher = more activation of STING-IRF / NF-kB immune response reporter.
For test [2], the system named is A549-Dual. Briefly: ISRE reporter (Lucia luciferase) activity, viability-corrected, relative to vehicle (fold change vs vehicle); higher = more activation of STING-IRF / NF-kB immune response reporter.
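Wherever NF-kB reporter (SEAP) activity, viability-corrected, relative to vehicle is given: viability correction based on the alamar blue assay, with concentrations leaving 10% survival or less dropped.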

For the compound `Cc1ccc(Cl)c(Nc2ccccc2C(=O)[O][Na])c1Cl` [Meclofenamate Sodium], the NF-kB reporter with A549-Dual [1] (0.1 µM, irradiation: 8 Gy/4 fr) worked out at 1.07; in the test on A549-Dual [1] (0.1 µM, irradiation: none) it was 1.22; with A549-Dual [1] (0.3 µM, irradiation: 8 Gy/4 fr), 1.34; with A549-Dual [1] (0.3 µM, irradiation: none) it was 1.17; in the test with A549-Dual [1] (1 µM, irradiation: 8 Gy/4 fr) it was 1.23; with A549-Dual [1] (1 µM, irradiation: none), 1.17. The NF-kB reporter in the test on A549-Dual [1] (3 µM, irradiation: 8 Gy/4 fr) was determined as 1.27; in the test on A549-Dual [1] (3 µM, irradiation: none), 1.14; with A549-Dual [1] (10 µM, irradiation: 8 Gy/4 fr) it was 1.08; in the test on A549-Dual [1] (10 µM, irradiation: none) it was 0.918. In addition, the ISRE reporter in the test on A549-Dual [2] (0.1 µM, irradiation: 8 Gy/4 fr) came to 1.18; in the test on A549-Dual [2] (0.1 µM, irradiation: none), 1.22; with A549-Dual [2] (0.3 µM, irradiation: 8 Gy/4 fr), 1.14; in the test on A549-Dual [2] (0.3 µM, irradiation: none), 1; with A549-Dual [2] (1 µM, irradiation: 8 Gy/4 fr) it was 1.04; in the test on A549-Dual [2] (1 µM, irradiation: none), 1.02. Besides, the ISRE reporter in the test on A549-Dual [2] (3 µM, irradiation: 8 Gy/4 fr) is 1; with A549-Dual [2] (3 µM, irradiation: none), 1.08; in the test with A549-Dual [2] (10 µM, irradiation: 8 Gy/4 fr), 1.1; in the test on A549-Dual [2] (10 µM, irradiation: none), 0.903.

As to `Nc1nc(F)nc2c1ncn2C1OC(COP(=O)(O)O)C(O)C1O` (stereo not given) [Fludarabine Phosphate], the NF-kB reporter in the test with A549-Dual [1] (0.1 µM, irradiation: 8 Gy/4 fr) was 1.17; with A549-Dual [1] (0.1 µM, irradiation: none), 1.07; with A549-Dual [1] (0.3 µM, irradiation: 8 Gy/4 fr), 1.44; in the test on A549-Dual [1] (0.3 µM, irradiation: none), 1.07; in the test with A549-Dual [1] (1 µM, irradiation: 8 Gy/4 fr) it was 1.19; in the test on A549-Dual [1] (1 µM, irradiation: none), 1.17. For the same compound, the NF-kB reporter in the test with A549-Dual [1] (3 µM, irradiation: 8 Gy/4 fr) stood at 1.26; with A549-Dual [1] (3 µM, irradiation: none), 0.872; in the test with A549-Dual [1] (10 µM, irradiation: 8 Gy/4 fr), 0.887; in the test on A549-Dual [1] (10 µM, irradiation: none) it was 0.92. The ISRE reporter is 0.957 in the test on A549-Dual [2] (0.1 µM, irradiation: 8 Gy/4 fr); 1.02 with A549-Dual [2] (0.1 µM, irradiation: none); 1.43 in the test on A549-Dual [2] (0.3 µM, irradiation: 8 Gy/4 fr); 1.09 in the test with A549-Dual [2] (0.3 µM, irradiation: none); 1.1 with A549-Dual [2] (1 µM, irradiation: 8 Gy/4 fr); 0.829 with A549-Dual [2] (1 µM, irradiation: none). The ISRE reporter came out at 1.12 with A549-Dual [2] (3 µM, irradiation: 8 Gy/4 fr); 0.877 in the test with A549-Dual [2] (3 µM, irradiation: none); 0.911 in the test with A549-Dual [2] (10 µM, irradiation: 8 Gy/4 fr); 0.901 in the test with A549-Dual [2] (10 µM, irradiation: none).

In the case of `OCC1OC(Oc2cc(O)cc(/C=C/c3ccc(O)cc3)c2)C(O)C(O)C1O` (stereo not given) [Polydatin], the NF-kB reporter was determined as 1.37 with A549-Dual [1] (0.1 µM, irradiation: 8 Gy/4 fr); 2.71 in the test on A549-Dual [1] (0.1 µM, irradiation: none); 1.56 with A549-Dual [1] (0.3 µM, irradiation: 8 Gy/4 fr); 2.51 with A549-Dual [1] (0.3 µM, irradiation: none); 1.62 in the test on A549-Dual [1] (1 µM, irradiation: 8 Gy/4 fr); 1.5 with A549-Dual [1] (1 µM, irradiation: none). The NF-kB reporter amounted to 1.97 in the test with A549-Dual [1] (3 µM, irradiation: 8 Gy/4 fr); 1.56 in the test on A549-Dual [1] (3 µM, irradiation: none); 1.75 in the test on A549-Dual [1] (10 µM, irradiation: 8 Gy/4 fr); 0.881 in the test with A549-Dual [1] (10 µM, irradiation: none). Also, the ISRE reporter was found to be 1.23 with A549-Dual [2] (0.1 µM, irradiation: 8 Gy/4 fr); 2.34 in the test with A549-Dual [2] (0.1 µM, irradiation: none); 1.17 with A549-Dual [2] (0.3 µM, irradiation: 8 Gy/4 fr); 1.95 with A549-Dual [2] (0.3 µM, irradiation: none); 1.35 in the test with A549-Dual [2] (1 µM, irradiation: 8 Gy/4 fr); 1.29 in the test on A549-Dual [2] (1 µM, irradiation: none). Further, the ISRE reporter came to 1.09 in the test with A549-Dual [2] (3 µM, irradiation: 8 Gy/4 fr); 1.19 in the test on A549-Dual [2] (3 µM, irradiation: none); 1.41 in the test on A549-Dual [2] (10 µM, irradiation: 8 Gy/4 fr); 1.1 in the test on A549-Dual [2] (10 µM, irradiation: none).

For `CNC(=O)c1c(C)oc2cc(Oc3ncnc4cc(OC)c(OC)cc34)ccc12` [Fruquintinib], the NF-kB reporter with A549-Dual [1] (0.1 µM, irradiation: 8 Gy/4 fr) was 1.07; in the test on A549-Dual [1] (0.1 µM, irradiation: none) it was 1.3; in the test on A549-Dual [1] (0.3 µM, irradiation: 8 Gy/4 fr), 1.02; in the test with A549-Dual [1] (0.3 µM, irradiation: none), 1.01; in the test on A549-Dual [1] (1 µM, irradiation: 8 Gy/4 fr), 1.13; in the test on A549-Dual [1] (1 µM, irradiation: none), 1.39. Moreover, the NF-kB reporter in the test with A549-Dual [1] (3 µM, irradiation: 8 Gy/4 fr) turned out to be 1.04; in the test on A549-Dual [1] (3 µM, irradiation: none), 1.25; in the test on A549-Dual [1] (10 µM, irradiation: 8 Gy/4 fr), 0.884; with A549-Dual [1] (10 µM, irradiation: none), 1.12. Besides, the ISRE reporter in the test with A549-Dual [2] (0.1 µM, irradiation: 8 Gy/4 fr) came out at 1.13; in the test with A549-Dual [2] (0.1 µM, irradiation: none) it was 1.45; with A549-Dual [2] (0.3 µM, irradiation: 8 Gy/4 fr) it was 1.29; in the test with A549-Dual [2] (0.3 µM, irradiation: none) it was 1.02; with A549-Dual [2] (1 µM, irradiation: 8 Gy/4 fr) it was 0.859; in the test on A549-Dual [2] (1 µM, irradiation: none), 1.14. Moreover, the ISRE reporter in the test with A549-Dual [2] (3 µM, irradiation: 8 Gy/4 fr) is 1.09; in the test on A549-Dual [2] (3 µM, irradiation: none) it was 0.769; with A549-Dual [2] (10 µM, irradiation: 8 Gy/4 fr), 0.884; in the test on A549-Dual [2] (10 µM, irradiation: none), 0.835.

As to `CCC(c1ccc(O)cc1)C(CC)c1ccc(O)cc1` (stereo not given) [Hexestrol], the NF-kB reporter came out at 0.982 in the test with A549-Dual [1] (0.1 µM, irradiation: 8 Gy/4 fr); 0.911 in the test on A549-Dual [1] (0.1 µM, irradiation: none); 0.888 with A549-Dual [1] (0.3 µM, irradiation: 8 Gy/4 fr); 0.919 with A549-Dual [1] (0.3 µM, irradiation: none); 0.967 in the test with A549-Dual [1] (1 µM, irradiation: 8 Gy/4 fr); 0.95 with A549-Dual [1] (1 µM, irradiation: none). For the same compound, the NF-kB reporter in the test with A549-Dual [1] (3 µM, irradiation: 8 Gy/4 fr) turned out to be 0.821; in the test with A549-Dual [1] (3 µM, irradiation: none) it was 1.01; with A549-Dual [1] (10 µM, irradiation: 8 Gy/4 fr), 1.14; in the test on A549-Dual [1] (10 µM, irradiation: none), 0.968. Moreover, the ISRE reporter amounted to 1.01 in the test on A549-Dual [2] (0.1 µM, irradiation: 8 Gy/4 fr); 1.02 with A549-Dual [2] (0.1 µM, irradiation: none); 0.921 in the test with A549-Dual [2] (0.3 µM, irradiation: 8 Gy/4 fr); 1.05 in the test with A549-Dual [2] (0.3 µM, irradiation: none); 1.03 in the test with A549-Dual [2] (1 µM, irradiation: 8 Gy/4 fr); 0.947 in the test with A549-Dual [2] (1 µM, irradiation: none). In addition, the ISRE reporter in the test on A549-Dual [2] (3 µM, irradiation: 8 Gy/4 fr) was found to be 1.02; in the test with A549-Dual [2] (3 µM, irradiation: none), 1; in the test with A549-Dual [2] (10 µM, irradiation: 8 Gy/4 fr), 1.12; with A549-Dual [2] (10 µM, irradiation: none), 1.04.

`CC(C)OC(=O)CCC/C=C\CC1C(O)CC(O)C1CCC(O)CCc1ccccc1` (stereo not given) [Latanoprost]: the NF-kB reporter was 0.671 in the test with A549-Dual [1] (0.1 µM, irradiation: 8 Gy/4 fr); 0.473 in the test with A549-Dual [1] (0.1 µM, irradiation: none); 0.56 in the test on A549-Dual [1] (0.3 µM, irradiation: 8 Gy/4 fr); 0.594 in the test with A549-Dual [1] (0.3 µM, irradiation: none); 0.999 in the test on A549-Dual [1] (1 µM, irradiation: 8 Gy/4 fr); 0.5 with A549-Dual [1] (1 µM, irradiation: none). In addition, the NF-kB reporter was 0.43 in the test on A549-Dual [1] (3 µM, irradiation: 8 Gy/4 fr); 0.576 in the test on A549-Dual [1] (3 µM, irradiation: none); 0.385 with A549-Dual [1] (10 µM, irradiation: 8 Gy/4 fr); 0.232 in the test with A549-Dual [1] (10 µM, irradiation: none). The ISRE reporter in the test on A549-Dual [2] (0.1 µM, irradiation: 8 Gy/4 fr) stood at 0.686; with A549-Dual [2] (0.1 µM, irradiation: none) it was 0.719; in the test on A549-Dual [2] (0.3 µM, irradiation: 8 Gy/4 fr), 0.606; in the test on A549-Dual [2] (0.3 µM, irradiation: none), 0.839; with A549-Dual [2] (1 µM, irradiation: 8 Gy/4 fr) it was 1.03; with A549-Dual [2] (1 µM, irradiation: none), 0.66. Besides, the ISRE reporter with A549-Dual [2] (3 µM, irradiation: 8 Gy/4 fr) was 0.588; with A549-Dual [2] (3 µM, irradiation: none), 0.594; with A549-Dual [2] (10 µM, irradiation: 8 Gy/4 fr), 0.457; in the test with A549-Dual [2] (10 µM, irradiation: none), 0.61.

Turning to `O=c1[nH]c(=O)n(C2CC(O)C(CO)O2)cc1F` (stereo not given) [Floxuridine], the NF-kB reporter in the test on A549-Dual [1] (0.1 µM, irradiation: 8 Gy/4 fr) turned out to be 1.16; with A549-Dual [1] (0.1 µM, irradiation: none), 1.5; with A549-Dual [1] (0.3 µM, irradiation: 8 Gy/4 fr), 1.72; in the test on A549-Dual [1] (0.3 µM, irradiation: none), 1.58; in the test with A549-Dual [1] (1 µM, irradiation: 8 Gy/4 fr), 1.31; in the test on A549-Dual [1] (1 µM, irradiation: none), 1.43. Moreover, the NF-kB reporter in the test with A549-Dual [1] (3 µM, irradiation: 8 Gy/4 fr) was found to be 1.4; in the test with A549-Dual [1] (3 µM, irradiation: none), 1.42; in the test on A549-Dual [1] (10 µM, irradiation: 8 Gy/4 fr), 0.996; in the test with A549-Dual [1] (10 µM, irradiation: none) it was 1.38. In addition, the ISRE reporter came out at 0.684 with A549-Dual [2] (0.1 µM, irradiation: 8 Gy/4 fr); 2.23 in the test with A549-Dual [2] (0.1 µM, irradiation: none); 1.04 with A549-Dual [2] (0.3 µM, irradiation: 8 Gy/4 fr); 2.09 in the test on A549-Dual [2] (0.3 µM, irradiation: none); 0.638 in the test on A549-Dual [2] (1 µM, irradiation: 8 Gy/4 fr); 1.88 in the test on A549-Dual [2] (1 µM, irradiation: none). For the same compound, the ISRE reporter in the test with A549-Dual [2] (3 µM, irradiation: 8 Gy/4 fr) was 0.642; in the test on A549-Dual [2] (3 µM, irradiation: none), 1.45; in the test with A549-Dual [2] (10 µM, irradiation: 8 Gy/4 fr), 0.694; with A549-Dual [2] (10 µM, irradiation: none) it was 1.71.
